# ± gives the standard deviation of the averaged measurements. The full ranking holds about 33,000 sequences; the median of “E-score (dimensionless, -0.5 to 0.5)” is about -0.046, and the highest 2% start at about 0.36. The list shows a part of the results.
# Tested on: T1, SpTbr T-box DNA-binding domain (GST fusion)
# T1 sequence: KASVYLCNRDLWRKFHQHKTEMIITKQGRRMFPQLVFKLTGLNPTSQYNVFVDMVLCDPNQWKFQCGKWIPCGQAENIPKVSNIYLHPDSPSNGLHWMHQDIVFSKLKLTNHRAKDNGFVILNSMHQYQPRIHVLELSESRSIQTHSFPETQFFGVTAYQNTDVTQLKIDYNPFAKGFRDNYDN
# Experiment: PBM E-score of 8-mer (E-score (dimensionless, -0.5 to 0.5)); Tbr is Tbrain of the sea star Patiria miniata (Pm) or the sea urchin Strongylocentrotus purpuratus (Sp); higher = stronger binding preference; most listed sequences are background and not binding sites
# Details: the construct has about 5 more residues each side
# Procedure, shortened: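 Primer extension turned Universal Agilent oligonucleotide arrays double-stranded. They were incubated with 200 nM protein in PBS (pH 7.5); the protein was a GST-fused Tbr T-box DNA-binding domain expressed in BL21 E. coli at 20 °C and purified on glutathione. Every ungapped 8-mer was scored from the scanned, quantified probe intensities, and the Universal PBM Analysis Suite gave each an enrichment E-score averaged over duplicate arrays.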
row,Sequence,PBM E-score of 8-mer
1,GCGGAGGA,-0.108 ± 0.04
2,AAACGGAA,-0.072 ± 0.08
3,ACGCGTGG,0.203 ± 0.021
4,CCAGACGC,-0.0704 ± 0.012
5,CAACTAAC,0.132 ± 0.016
6,CCTATGGA,-0.195 ± 0.0078
7,CCTGGTGC,0.231 ± 0.035
8,AACCTAAC,-0.0237 ± 0.04
9,AAGGTGGG,0.242 ± 0.042
10,TGCCCAAA,-0.135 ± 0.019
11,CCAGATAA,0.0671 ± 0.096
12,GGCATTTA,-0.0361 ± 0.0046
13,ATGTGTAC,-0.00571 ± 0.026
14,AGCACTAC,-0.0189 ± 0.027
15,ATGAGCTG,0.0357 ± 0.018
16,ACCCTGCG,0.153 ± 0.0069
17,AAGTGCCT,-0.0646 ± 0.037
18,CAACCGGC,-0.166 ± 0.0048
19,ATTAGCTA,0.0659 ± 0.026
20,ATTCGCCC,-0.116 ± 0.045
21,ATAGCGCC,0.212 ± 0.02
22,CAAGCAGA,-0.205 ± 0.028

row,Sequence,PBM E-score of 8-mer
1,CCGTGACA,0.241 ± 0.028
2,AGGCTTTG,-0.219 ± 0.016
3,CGGGTGGC,0.153 ± 0.045
4,GATCTGTA,-0.081 ± 0.025
5,GTATCTGA,-0.0397 ± 0.012
6,AGGTCATG,-0.129 ± 0.0072
7,AGGTCAGA,-0.191 ± 0.058
8,ATGCTCGG,-0.0579 ± 0.0043
9,TTAGTCAA,-0.129 ± 0.018
10,CTCCCGGC,-0.0668 ± 0.032
11,AAACGTCT,-0.218 ± 0.09
12,CGTTGTCA,0.294 ± 0.014
13,AAGTGGAT,-0.102 ± 0.058
14,CCGAGGCC,-0.143 ± 0.041
15,CAACTGTC,0.23 ± 0.0054
16,ATACTTCC,-0.0311 ± 0.024
17,GACTGGGC,-0.219 ± 0.021
18,GAATACTC,-0.0382 ± 0.037
19,ACGTGGGG,-0.127 ± 0.012
20,ATACGAGA,-0.127 ± 0.0036
21,CGATCTGC,0.000155 ± 0.049
22,GCGAGGTA,0.0707 ± 0.033

row,Sequence,PBM E-score of 8-mer
1,GTCGATGA,0.213 ± 0.0032
2,AGTCAGCA,-0.0176 ± 0.0093
3,ACAGGGGA,-0.104 ± 0.046
4,CCTTGTCC,-0.138 ± 0.0016
5,TACGTGGA,-0.0926 ± 0.031
6,CGTTGAAG,0.0941 ± 0.031
7,CTCTGCTC,-0.146 ± 0.017
8,AGCTTAAT,-0.164 ± 0.064
9,CCTCTAGA,-0.201 ± 0.0095
10,ATACTTGC,0.0754 ± 0.026
11,GCGAGTAC,0.1046 ± 0.00019
12,CCGCAAAA,0.027 ± 0.0036
13,ATTAGACC,-0.22 ± 0.017
14,GTGGGAAA,0.3193 ± 0.0012
15,CAACGACC,-0.138 ± 0.018
16,AGGACCCC,-0.239 ± 0.017
17,CGGGCCCA,-0.27 ± 0.046
18,CCGATTCA,-0.0626 ± 0.029
19,CCGGGTAC,-0.0634 ± 0.0066
20,CTCACCCA,0.202 ± 0.017
21,GACTATCC,-0.0837 ± 0.046
22,ATTAGTAG,-0.0283 ± 0.097

row,Sequence,PBM E-score of 8-mer
1,CTCCCATC,-0.193 ± 0.11
2,AACAACTT,0.134 ± 0.048
3,GCCACGGA,-0.1 ± 0.094
4,CAGAGACA,0.0443 ± 0.011
5,ACACCTCT,0.479 ± 0.0083
6,ACAACTTC,0.146 ± 0.046
7,CGGCCTCA,-0.0875 ± 0.037
8,GAATTAGA,-0.203 ± 0.013
9,ACACTTTG,0.379 ± 0.005
10,GCTGCAAA,0.0289 ± 0.04
11,TTATGAAA,-0.0615 ± 0.018
12,AGCTCGTC,-0.287 ± 0.087
13,AATCGAAG,-0.0748 ± 0.089
14,CAATCCTG,0.143 ± 0.045
15,CACTCCGG,0.278 ± 0.018
16,ATGGCTGA,-0.185 ± 0.028
17,CGCCGGAC,-0.231 ± 0.019
18,ATTTGCGG,-0.0823 ± 0.027
19,CCGATGCC,-0.223 ± 0.03
20,TAGCGAGA,0.171 ± 0.013
21,AACCCTCT,-0.219 ± 0.054
22,AGCCTAGC,-0.0329 ± 0.015

row,Sequence,PBM E-score of 8-mer
1,AGACCCGA,0.114 ± 0.051
2,CCGCGTCA,0.132 ± 0.026
3,TGCTACCA,0.00517 ± 0.074
4,CTACACTC,0.0766 ± 0.037
5,ACCTCTTG,0.0732 ± 0.065
6,TAGCACGA,0.141 ± 0.021
7,AACCCGAA,0.00605 ± 0.041
8,AGTACGAG,-0.276 ± 0.028
9,AACGGCGT,0.112 ± 0.033
10,CGACTTAG,0.11 ± 0.017
11,GCTAACTA,0.116 ± 0.011
12,GCCCCTTA,-0.159 ± 0.063
13,ACTCTTCG,0.113 ± 0.071
14,GCCCTAAA,-0.147 ± 0.027
15,ACCAAACG,-0.00694 ± 0.035
16,GAGTTTAC,0.136 ± 0.052
17,ACTCCAGT,-0.143 ± 0.032
18,CTACTGTC,0.1 ± 0.024
19,ACTAACAT,-0.0379 ± 0.014
20,GAGGTCCC,-0.117 ± 0.013
21,AATTATCG,0.0187 ± 0.065
22,TGCGCACA,0.0613 ± 0.041

# From the supplement of paper PMC4166925
